Measurements taken from PubChem BioAssay AID504832 (National Center for Advancing Translational Sciences (NCATS), 2011).
Screen size: about 310,000 compounds; about 18,000 (5.8%) were called active. The inconclusive results got no clear call from the source; some entries with a clear call stand among them for comparison. Calls come from the whole dose curve; as a rule, active = well fitted inhibition curve with a large enough effect; inconclusive = small, poorly fitted or top-dose-only effect, or another doubt; inactive = no such curve, though single readings can be large or run the other way. No potency is given beside an inconclusive call; the fits are too rough.

test: Primary qHTS for delayed death inhibitors of the malarial parasite plastid, 48 hour incubation; settings: P. falciparum luciferase growth in erythrocytes; series mostly up to 28.7 µM; activity change, negative = inhibition: at the top concentration
How it was run: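 Luciferase-expressing P. falciparum in infected erythrocytes (2% hematocrit, 0.1% parasitemia final) in RPMI 1640/0.5% Albumax were exposed to compound for 48 hours at 37 C, 5% CO2; growth read as luminescence.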
% is set by controls: 0 for no effect and ±100 for the full control effect; potency is the fitted concentration of half-maximal effect; tags give direction and shape of the fitted curve.

SMILES	activity change, negative = inhibition	Potency
CN(Cc1ccccc1)C(=O)COC(=O)Cn1cnc2ccccc21	inactive: 13.2%	
CC(=O)c1cc2c(cc1NS(=O)(=O)c1ccccc1F)OCO2		inconclusive [inhibitor, single point]
COc1ccc(NS(=O)(=O)c2ccc(NS(=O)(=O)c3cccc(C(=O)O)c3)cc2)cc1	inactive: 28.7%	
C/C(=N\Nc1nc2ccccc2[nH]1)c1cc2ccccc2o1	inactive: 0%	
CC(C)c1ccc(S(=O)(=O)N2CCN(C(=O)C3CCCCC3)CC2)cc1		inconclusive [inhibitor, single point]
NS(=O)(=O)c1ccc(CCNC(=O)c2cc(-c3ccccc3)nc3ccccc23)cc1	inactive: 6.86%	
Cc1cc(NC(=O)c2cccc(S(=O)(=O)N3CCCCC3)c2)no1		inconclusive [inhibitor, partial curve, poor fit]
Cc1cc(OCC(O)CN2CCc3ccccc3C2)cc(C(C)C)c1 (centres undefined)		inconclusive [inhibitor, single point]
CC1=C(C(=O)Nc2ccccc2)C(c2cccs2)C(C#N)=C(SCC#N)N1 (centres undefined)		inconclusive [inhibitor, single point]
O=C(NC(=S)Nc1ccc(CN2CCOCC2)cc1)c1ccc(-c2cccc(Cl)c2)o1		inconclusive [inhibitor, single point]
CCCCC(=O)Nc1ccc2c(c1)nc1n2CCSC1	inactive: 134%	
COc1ccc(-c2sc3ccccc3c2C#CCCO)cc1	inactive: -14.1%	
O=C(Nc1nccs1)c1ccc(Br)c(S(=O)(=O)N2CCOCC2)c1		inconclusive [inhibitor, partial curve, poor fit]
COc1cccc(C2NC(=O)NC(C)=C2C(=O)Nc2ccc(C)cc2)c1 (centres undefined)		inconclusive [inhibitor, single point]
COc1ccccc1CNC(=O)C(C)NS(=O)(=O)c1ccc(Br)cc1 (centres undefined)		inconclusive [inhibitor, full curve]
O=C(CN1C(=O)CCSc2ccc(S(=O)(=O)N3CCOCC3)cc21)Nc1cccc(F)c1		inconclusive [inhibitor, single point]
CCCCCc1c(C)nc(NCc2ccccc2)[nH]c1=O		active: 2.08 µM
COc1ccc(-c2nnc(NC(=O)c3ccc(S(=O)(=O)N4CCc5ccccc5C4)cc3)o2)cc1		inconclusive [inhibitor, partial curve, poor fit]
O=C(COc1ccccc1)Nc1ccccc1N1CCCCC1		inconclusive [inhibitor, single point]
Cc1ccc2oc(=O)cc(CN3CCN(C/C=C/c4ccccc4)CC3)c2c1		inconclusive [inhibitor, single point]
CCOC(=O)c1cnc2ccc(C)cc2c1NCCN1CCOCC1		active: 11.7 µM
O=C1CCCC2=C1C(c1ccccc1)CC(=O)N2c1ccc(F)cc1F (centres undefined)		inconclusive [inhibitor, full curve, poor fit]

SMILES	activity change, negative = inhibition	Potency
Cc1ccc(C)c(NC(=O)CSc2nnc([C@@H]3CCCN3C(=O)OC(C)(C)C)o2)c1		inconclusive [inhibitor, single point]
CCCCC1CCC(C(=O)N(CCOC)c2c(N)n(CCCC)c(=O)[nH]c2=O)CC1 (centres undefined)		inconclusive [inhibitor, single point]
CCN(CC)S(=O)(=O)c1cccc(-c2nnc(SCC(=O)c3cc(C)n(C)c3C)o2)c1		inconclusive [inhibitor, full curve]
COc1cccc(C(=O)C2CCCN(Cc3cccn3-c3cccnc3)C2)c1 (centres undefined)		inconclusive [inhibitor, partial curve, poor fit]
O=[N+]([O-])c1ccccc1S(=O)(=O)N1CCN(c2ccc(F)cc2)CC1	inactive: 4.51%	
C[N+]1(CCOC(=O)C2(c3ccccc3)CCCC2)CCCCC1		inconclusive [inhibitor, single point]
CCC(C(=O)OC)n1c(-c2ccccc2)nc2ccccc2c1=O (centres undefined)		inconclusive [inhibitor, partial curve]
COc1ccc(C(=O)NCCN2CCN(C(=O)c3ccc(OC)cc3)CC2)cc1		inconclusive [inhibitor, partial curve, poor fit]
COc1ccc(OCc2cc(C(=O)NCC(C)(C)N3CCOCC3)no2)c(Cl)c1		inconclusive [inhibitor, partial curve, poor fit]
COc1cccc(C(=O)NCc2cn3ccsc3n2)c1	inactive: 18.3%	
Cc1ccc(OCc2cc(C(=O)N3CCN(C4CCCCC4)CC3)no2)cc1C		inconclusive [inhibitor, partial curve, poor fit]
CCN(CC)CCn1c2c(c(SCC(=O)Nc3ccc(F)c(F)c3)nc1=O)CCC2		inconclusive [inhibitor, single point]
CCN(CC)CCN1c2ccccc2Sc2ccc3ccccc3c21		active: 8.28 µM
Cc1cccc(NC(=S)N/N=C/c2c[nH]c3ccccc23)c1		inconclusive [inhibitor, single point]
O=C(Nc1ccc(S(=O)(=O)N2CCCCC2)cc1)C1CC(=O)N(c2ccccc2)C1 (centres undefined)	inactive: -22.8%	
COCCNC(=O)Cn1ccc2cc(S(=O)(=O)N3CCCCCC3)ccc21	inactive: 5.86%	
COc1ccc(CCNCC(=O)Nc2ccccc2C(F)(F)F)cc1		active: 13.1 µM
O=C(COC(=O)c1ccc(O)cc1)c1ccc(S(=O)(=O)N2CCCCC2)cc1		active: 2.94 µM
O=C(NCCc1ccccc1)C(c1cccs1)N(C(=O)CCl)c1ccc(Cl)cc1 (centres undefined)		inconclusive [inhibitor, single point]
NC(=O)c1cc(S(=O)(=O)N2CCOCC2)ccc1Sc1ccccc1N	inactive: 4.79%	
Cc1ccc(SCC(=O)OCC(=O)NCCC2=CCCCC2)cc1		inconclusive [inhibitor, single point]
O=C(Nc1cccnc1)c1c(F)c(F)c(F)c(F)c1F		inconclusive [inhibitor, single point]
